This note sets out measurements from PubChem BioAssay AID1508624 (National Center for Advancing Translational Sciences (NCATS), 2021).

In all, about 48,000 compounds went through this assay and about 120 (0.25%) were called active. Not shown: some 4% with an inconclusive outcome. Calls follow the shape of the dose curve; as a rule, active = well fitted activation curve with a large enough effect; inconclusive = small, poorly fitted or top-dose-only effect, or another doubt; inactive = no such curve, though single readings can be large or run the other way. Some of the results follow.

This test in a line: Primary qHTS for Identification of Small Molecule Activators of Huntingtin-Antisense Promoter Activity. Also: nearly all actives have a fitted effect of over 55% in size. To be noted: HEK293 HTT-AS promoter firefly luciferase reporter (activity 0% = vehicle and -100% = no light), 24 h; series mostly up to 57.5 µM; activity change, positive = activation: at the top concentration. An outline of the steps:
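HEK293 luciferase promoter-reporter cells (2,500/well) plated 24 h, then compounds added at up to 57.5 uM final for 24 h at 37 °C. Firefly luminescence by Dual-Glo, normalized to vehicle (0%) and zero RLU (-100%).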
`C[C@H](c1ccc(F)cc1CCCC(=O)O)N(c1cc(F)ccc1F)S(=O)(=O)c1ccc(Cl)cc1`: the “activity change, positive = activation” value is inactive: -22.8%. Turning to `O=c1cc(-c2ccccc2)n2c(SCc3ccc(F)cc3)nnc2[nH]1`, the “activity change, positive = activation” value was inactive: -12.7%. The same measure for `Cc1cn2c(=O)cc(COC(=O)COc3ccccc3C)nc2s1`: inactive: -0.316%. With `CCOC(=O)c1c(C)[nH]c(CCC(=O)NCc2ccc(N(C)C)cc2)c1C`, the “activity change, positive = activation” value was inactive: -28.6%.

On to `CCN(Cc1ccccc1)C(=O)Cn1c(=O)n(-c2ccc(C)c(C)c2)c(=O)c2c(C)c(C)sc21`, for which the “activity change, positive = activation” value was inactive: -18.7%. As to `O=c1oc2ccccc2cc1-c1cn2cc(Cc3ccc(Cl)cc3)sc2n1`, the “activity change, positive = activation” value is inactive: 0.0744%. `O=C(Nc1cccc(C(F)(F)F)c1)c1cc2ccc3cccnc3c2[nH]1`: the “activity change, positive = activation” value is inactive: 6.78%. Consider `Cc1ccc(-c2nc(C)c(CCNS(=O)(=O)c3ccc(F)c(C(F)(F)F)c3)s2)cc1`, for which the “activity change, positive = activation” value is inactive: -11.7%. On to `COc1ccc(CNc2oc(-c3ccc(COc4ccccc4C)o3)nc2C#N)cc1`, for which the “activity change, positive = activation” value is inactive: -63.5%.

For `CCn1cc(C(=O)N2CCN(c3ccccc3F)CC2)c(=O)c2cc(S(=O)(=O)N(C)C)ccc21`, the “activity change, positive = activation” value is inactive: 8.97%. Regarding `COc1cccc(C(=O)Nc2cccc(-c3cn4c(C)csc4n3)c2)c1OC`, the “activity change, positive = activation” value is inactive: 14.8%. Regarding `Cc1cccc(N2CCN(C(=O)CCn3c(=O)c4cccn4c4cccnc43)CC2C)c1` (configuration not stated), the “activity change, positive = activation” value was inactive: -33.7%. Regarding `O=C(Nc1cccc(Cl)c1)c1cc2c(=O)[nH]c3ccccc3c2s1`, the “activity change, positive = activation” value is inactive: 8.49%. Under `Cc1cccc(-c2nc3c4ccccc4nc(N4CCN(c5cc(C)ccc5C)CC4)n3n2)c1` stands inactive: 5.99%. In the case of `CC1(C)CCC2=C(O1)c1ccccc1C(=O)C2=O`, the “activity change, positive = activation” value is inactive: -16.9%. Take `Cc1nnc(N2CCCC(C(=O)NCCc3ccc(Cl)cc3)C2)c2nn(-c3ccccc3)c(C)c12` (configuration not stated): the “activity change, positive = activation” value was inactive: -25.5%. Under `O=C(Nc1ccc(-c2cn3cccnc3n2)cc1)c1cc(Br)ccc1Cl` stands inactive: -15.5%. Under `CCc1ccccc1NC(=O)c1cnc2sc(N3CCCC3)nn2c1=O` stands inactive: -16.8%; under `Cc1ccc(Nc2nc(C)nc(N)c2S(=O)(=O)c2ccccc2)cc1`, inactive: -15%; under `CC1=C(C(=O)Nc2ccccc2)C(c2cccn2C)n2ncnc2N1` (configuration not stated), inactive: -7.65%.

As to `Cc1ccc(C)c(Cn2c(C3CC(=O)N(c4ccccc4C)C3)nc3ccccc32)c1` (configuration not stated), the “activity change, positive = activation” value is inactive: -40.4%. Regarding `COc1ccc(Cn2c(=O)c3oc4ccccc4c3n(CC(=O)Nc3ccc(F)cc3F)c2=O)cc1`, the “activity change, positive = activation” value was inactive: 2.09%. On to `Cc1ccc(Cl)cc1N1CCN(Cc2nnc(-c3ccc4c(c3)OCO4)o2)CC1`, for which the “activity change, positive = activation” value was inactive: 0.852%.

For the compound `Cc1cc(NC(=O)C2CCN(S(=O)(=O)c3ccc(Br)s3)CC2)ccc1Br`, the “activity change, positive = activation” value is inactive: -19.1%. As for `Cc1ccc(CNC(=O)CSc2n[nH]c(-c3ccc(F)cc3)n2)cc1`, the “activity change, positive = activation” value was inactive: -27.2%. In the case of `O=S(=O)(c1ccc2nc(N3CCN(c4cccc(Cl)c4)CC3)ccc2c1)N1CCCCC1`, the “activity change, positive = activation” value is inactive: -6.05%. As to `Cc1ccc(NC(=O)CSc2nc(-c3ccco3)cc(C(F)(F)F)n2)cc1`, the “activity change, positive = activation” value was inactive: -35.6%.

For the compound `Cc1ccc(NC(=O)CN2C(=O)CCSc3ccc(S(=O)(=O)N4CCCC4)cc32)cc1C`, the “activity change, positive = activation” value is inactive: -7.26%. The same measure for `Cc1ccc(C)c(OC(=O)CSc2nnc(CNC(=O)c3ccccc3)o2)c1`: inactive: -3.36%; for `CC1=C(c2ccc(C)cc2)S(=O)(=O)NC1=NCCCN1CCN(c2ccc(F)cc2)CC1`: inactive: -31.8%; for `Cc1cc2oc(C(=O)Nc3ccc(S(=O)(=O)N4CCCCCC4)cc3)cc(=O)c2cc1C`: inactive: 1.07%.

As for `CCN(CC)c1ccc(NS(=O)(=O)c2cc3[nH]c(=O)c(=O)[nH]c3cc2C)c(C)c1`, the “activity change, positive = activation” value is inactive: -15.2%. Regarding `CC(C)c1ccc(OC(=O)c2cc(-c3ccccc3)on2)cc1`, the “activity change, positive = activation” value is inactive: -2.01%. `CCN(CC)c1ccc(NC(=O)CSc2nc(-c3cccs3)cc(C(F)(F)F)n2)cc1`: the “activity change, positive = activation” value is inactive: -7.84%.

For the compound `Cc1ccc(NC(=O)Nc2nnc(N(C)Cc3ccccc3)s2)c(C)c1`, the “activity change, positive = activation” value is inactive: -7.05%. Under `CC(=O)N1CCc2c(sc3nc(SCC(C)C)n(-c4ccc(F)c(Cl)c4)c(=O)c23)C1` stands inactive: -26.1%; under `CCCSc1ncc(Cl)c(C(=O)Nc2c(C(=O)Nc3ccc(C)cc3)oc3ccccc23)n1`, inactive: -6.89%.

On to `COC(=O)c1ccc(C2C(C(=O)Nc3ccccc3)=C(C)Nc3nc4ccccc4n32)cc1` (configuration not stated), for which the “activity change, positive = activation” value is inactive: -21.2%.

As to `CCc1nc(Oc2cccc(F)c2)c2oc3ccccc3c2n1`, the “activity change, positive = activation” value is inactive: 0.873%. The same measure for `COCCCNc1oc(-c2ccc(COc3ccc(Cl)cc3)o2)nc1C#N`: inactive: -36.8%; for `CCCCCNC(=O)CCCCCn1c(=O)[nH]c2ccsc2c1=O`: inactive: -0.753%; for `COc1ccc(CNC(=O)C2CCN(c3nc4ccccc4[nH]3)CC2)cc1OC`: inactive: -8.55%.

On to `O=C(Nc1sc2c(c1C(=O)NCC1CCCO1)CCC2)c1cc(=O)c2ccccc2o1` (configuration not stated), for which the “activity change, positive = activation” value is inactive: 0%.

`CCOC(=O)c1c(S(=O)(=O)N2CCCC(C(=O)Nc3cccc(C)n3)C2)c(C)n(C)c1C` (configuration not stated): the “activity change, positive = activation” value is inactive: 7.91%. Take `CCOc1ccc(C2CC(=O)Nc3c2c(=O)nc(SCc2ccccc2C)n3C)cc1OC` (configuration not stated): the “activity change, positive = activation” value is inactive: -15.9%.

`OCCN1C[C@H](O)[C@@H](O)[C@H](O)[C@H]1CO`: the “activity change, positive = activation” value is inactive: -0.786%.

For `CCn1cc(C(=O)OCC(=O)Nc2cccc(C(C)=O)c2)c(=O)c2ccc(C)nc21`, the “activity change, positive = activation” value is inactive: -14.6%.
